Source: patent US11479587B2, “Cationic intrinsically disordered antimicrobial peptides” (priority 2016, dated 2022)
Converted amounts (≈) assume the structure as drawn. Not every detail of the peptide structures is certain; ends, links or a residue may be inferred. Some entries share one result that the patent states for a list of compounds. Non-standard residues stand in square brackets, D forms with d. Residues, ends and D or L forms follow the SMILES beside them. *: point of attachment. Palmitoyl = CCCCCCCCCCCCCCCC(=O)*; dOrn = NCCC[C@@H](N)C(=O)O

Tests used:
S. aureus ATCC 6538 = test: CFU-assay, S. aureus-cidal activity; assay type: cell-based, Staphylococcus aureus
Protocol: Thus, within the present invention, the antimicrobial activity is generally measured in nutrient deficient 10 mM sodium phosphate buffer pH 5.5, containing 0.25% glucose, using the CFU-assay according to Steinberg and Lehrer, 1997 (supra), unless otherwise indicated. The CFU-assay allows determination of the minimal bactericidal concentration (MBC, e.g., MBC90 and MBC100; i.e. the concentration of compound required to achieve a specified reduction in bacterial cell number (microbial death or killing)).
Various peptides corresponding to repeat domains of hornerin (HR 1-11: HRNR 2606-2628; HR 1-17: HRNR 2656-2684 and HR 1-18: HRNR 2656-2677) were tested for P. aeruginosa ATCC 10145-cidal activity in 10 mM Na-phosphate buffer pH 5.5, containing 0.25% glucose by counting the numbers of colonies of surviving bacteria at serial, twofold dilutions from 300 μg/ml down to 19 ng/ml of each peptide (CFU-assay; Steinberg and Lehrer, 1997, Methods Mol. Biol. 78, 169-186).
Staphylococcus aureus is a major skin pathogen, which causes skin infections, in particular in atopic dermatitis. The sensitivity of S. aureus ATCC 6538 towards several CIDAMPs was assessed using the CFU-assay as above (see Example 1). HR 1-18, which lacks S. aureus.-bactericidal activity, is converted in a S. aureus-cidal peptide, when all His are replaced by Arg (HR 1-18 4H-4R; see Table 13 and FIG. 9). […] HR 1-18 4H-4R is rich in Ser and Arg and contains a single Leu residue. When this single Leu was replaced by Gly in S. aureus-cidal HR 1-18 4H-4R (forming HR 1-18 4H-4R/L-G), S. aureus-cidal activity was abolished at both pH 7.0 and pH 5.5 (see Table 13 and FIG. 9).

P. aeruginosa ATCC 10145 = test: CFU-assay, P. aeruginosa-cidal activity; assay type: cell-based, Pseudomonas aeruginosa; conditions: pH 5.5, 0.25% glucose

Molecule: Pal-SHHRHFRSHQCRRQRSNSCDR (N-terminal palmitoyl; Palmitoylated peptide derived from human late cornified envelope protein 3C (Pal-LCE3C 55-75); LIPID (1)..(1) …) [Pal-LCE3C55-75]
- MBC100 (S. aureus ATCC 6538; pH 5.5, 0.25% glucose (text)): 0.078 to 0.307 µM

Molecule: CCCCCCCCCCCCCCCC(=O)NCC(=O)N[C@@H](CCCN)C(=O)N[C@@H](CCCN)C(=O)NCC(=O)NCC(=O)N[C@@H](CCCN)C(=O)NCC(=O)NCC(=O)N[C@@H](CCCN)C(=O)NCC(=O)N[C@@H](CCCN)C(=O)NCC(=O)N[C@@H](CCCN)C(=O)O [Pal-Orn-GR13, Pal-GOOGGOGGOGOGO] (HELM PEPTIDE1{[CCCCCCCCCCCCCCCC(=O)[*:2]].G.[Orn].[Orn].G.G.[Orn].G.G.[Orn].G.[Orn].G.[Orn]}$$$$V2.0)
- MBC90 (S. aureus ATCC 6538; pH 5.5, 0.25% glucose): 0.15 µg/mL
- MBC100 (S. aureus ATCC 6538; pH 5.5, 0.25% glucose): 18.75 µg/mL
- MBC90 (S. aureus ATCC 6538; pH 5.5, 0.25% glucose (text)): 0.112 µM
- MBC90 (P. aeruginosa ATCC 10145): 0.075 µg/mL (≈ 0.0559 µM)
- MBC100 (P. aeruginosa ATCC 10145): 0.3 µg/mL (≈ 0.224 µM)

Molecule: GRHGSGSGQSSGFGHHESSSWQSSGC-Pal* (C-terminal palmitoyl; S-palmitoylated peptide derived from human hornerin (S-Pal-HRNR 1389-1414); LIPID (26)..(26) … (THIOETHER BOND)) [S-Pal-HRNR1389-1414]
- MBC100 (S. aureus ATCC 6538; pH 5.5): 2.8 to 28 µM
- MBC90 (S. aureus ATCC 6538; pH 5.5, 0.25% glucose (text)): 0.09 to 0.42 µM

Molecule: GQHGSSSGHSSTHGQHGSASGQSSSC-Pal* (C-terminal palmitoyl; S-palmitoylated peptide derived from human hornerin (S-Pal-HRNR 2004-2029); LIPID (26)..(26) … (THIOETHER BOND)) [S-Pal-HRNR2004-2029]
- MBC100 (S. aureus ATCC 6538; pH 5.5): 2.8 to 28 µM
- MBC90 (S. aureus ATCC 6538; pH 5.5, 0.25% glucose (text)): 0.09 to 0.42 µM

Molecule: CCCCCCCCCCCCCCCC(=O)N[C@@H](Cc1c[nH]cn1)C(=O)NCC(=O)N[C@@H](CO)C(=O)N[C@@H](CCCNC(=N)N)C(=O)N[C@@H](CO)C(=O)NCC(=O)N[C@@H](CCC(N)=O)C(=O)N[C@@H](CO)C(=O)N[C@@H](CO)C(=O)N[C@@H](CCCNC(=N)N)C(=O)NCC(=O)N[C@@H](CCC(=O)O)C(=O)N[C@@H](CCCNC(=N)N)C(=O)N[C@@H](Cc1c[nH]cn1)C(=O)NCC(=O)N[C@@H](CO)C(=O)N[C@@H](CO)C(=O)N[C@@H](CO)C(=O)NCC(=O)N[C@@H](CO)C(=O)N[C@@H](CO)C(=O)N[C@@H](CO)C(=O)N[C@@H](Cc1c[nH]cn1)C(=O)O [Pal-HR 1-11] (HELM PEPTIDE1{[CCCCCCCCCCCCCCCC(=O)[*:2]].H.G.S.R.S.G.Q.S.S.R.G.E.R.H.G.S.S.S.G.S.S.S.H}$$$$V2.0)
- MBC90 (S. aureus ATCC 6538; pH 5.5, 0.25% glucose): 2.35 µg/mL
- MBC100 (S. aureus ATCC 6538; pH 5.5, 0.25% glucose): >300 µg/mL
- MBC90 (P. aeruginosa ATCC 10145): 0.075 µg/mL (≈ 0.0294 µM)
- MBC100 (P. aeruginosa ATCC 10145): 0.3 µg/mL (≈ 0.118 µM)

Molecule: CCCCCCCCCCCCCCCC(=O)NCC(=O)N[C@@H](CCCCN)C(=O)NCC(=O)N[C@@H](CCCCN)C(=O)O [Pal-GK4, Pal-GKGK] (HELM PEPTIDE1{[CCCCCCCCCCCCCCCC(=O)[*:2]].G.K.G.K}$$$$V2.0)
- MBC90 (S. aureus ATCC 6538; pH 5.5, 0.25% glucose): 4.7 µg/mL
- MBC100 (S. aureus ATCC 6538; pH 5.5, 0.25% glucose): 9.375 µg/mL
- MBC90 (P. aeruginosa ATCC 10145): 2.38 µg/mL (≈ 3.8 µM)
- MBC100 (P. aeruginosa ATCC 10145): 9.375 µg/mL (≈ 15 µM)

Molecule: CCCCCCCCCCCCCCCC(=O)NCC(=O)N[C@@H](CCCN)C(=O)NCC(=O)N[C@@H](CCCN)C(=O)O [Pal-GOrn4, Pal-GOGO] (HELM PEPTIDE1{[CCCCCCCCCCCCCCCC(=O)[*:2]].G.[Orn].G.[Orn]}$$$$V2.0)
- MBC90 (S. aureus ATCC 6538; pH 5.5, 0.25% glucose): 9.38 µg/mL
- MBC100 (S. aureus ATCC 6538; pH 5.5, 0.25% glucose): 37.5 µg/mL
- MBC90 (P. aeruginosa ATCC 10145): 2.35 µg/mL (≈ 3.92 µM)
- MBC100 (P. aeruginosa ATCC 10145): 18.75 µg/mL (≈ 31.3 µM)

Molecule: SGHSSVFGQHESGSGHSSAYSQHGSGSGHFC-Pal* (C-terminal palmitoyl; S-palmitoylated peptide derived from human hornerin (S-Pal-HRNR 1748-1778); LIPID (31)..(31) … (THIOETHER BOND)) [S-Pal-HRNR1748-1778]
- MBC100 (S. aureus ATCC 6538; pH 5.5): 2.8 to 28 µM
- MBC90 (S. aureus ATCC 6538; pH 5.5, 0.25% glucose (text)): 0.09 to 0.42 µM

Molecule: CCCCCCCCCCCCCCCC(=O)NCC(=O)N[C@H](CCCN)C(=O)NCC(=O)N[C@H](CCCN)C(=O)O [D-Pal-GOrn4, D-Pal-GODGOD] (Palmitoyl-G[dOrn]G[dOrn]-OH)
- MBC90 (S. aureus ATCC 6538; pH 5.5, 0.25% glucose): 9.38 µg/mL
- MBC100 (S. aureus ATCC 6538; pH 5.5, 0.25% glucose): 18.75 µg/mL
- MBC90 (P. aeruginosa ATCC 10145): 1.18 µg/mL (≈ 1.97 µM)
- MBC100 (P. aeruginosa ATCC 10145): 9.38 µg/mL (≈ 15.7 µM)

Molecule: CCCCCCCCCCCCCCCC(=O)NCC(=O)N[C@H](CCCNC(=N)N)C(=O)N[C@H](CCCNC(=N)N)C(=O)NCC(=O)NCC(=O)N[C@H](CCCNC(=N)N)C(=O)NCC(=O)NCC(=O)N[C@H](CCCNC(=N)N)C(=O)O [D-Pal-GR9] (HELM PEPTIDE1{[CCCCCCCCCCCCCCCC(=O)[*:2]].G.[dR].[dR].G.G.[dR].G.G.[dR]}$$$$V2.0)
- MBC90 (S. aureus ATCC 6538; pH 5.5, 0.25% glucose): 0.15 µg/mL
- MBC100 (S. aureus ATCC 6538; pH 5.5, 0.25% glucose): 2.35 µg/mL
- MBC90 (P. aeruginosa ATCC 10145): 0.038 µg/mL (≈ 0.0326 µM)
- MBC100 (P. aeruginosa ATCC 10145): 0.59 µg/mL (≈ 0.506 µM)
